Measured values reported in article PMC6919601, “Identification of Plasmodium dipeptidyl aminopeptidase allosteric inhibitors by high throughput screening” (PLoS ONE, 2019).
About 230 (0.21%) of roughly 110,000 compounds showed an effect of 50% or more. Some of the results follow.

biological target: DPAP1 (Plasmodium falciparum, UniProt Q8IIJ9); test: primary screen, percent inhibition; read by cleavage of a fluorogenic dipeptide substrate; higher = more effect of the substance; design: species or system P. falciparum D10 trophozoite lysates; single well
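Also: 30 min substrate incubation versus DMSO and 10 µM JCP410 controls.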

Sequence of DPAP1 (Q8IIJ9 whole entry, looked up): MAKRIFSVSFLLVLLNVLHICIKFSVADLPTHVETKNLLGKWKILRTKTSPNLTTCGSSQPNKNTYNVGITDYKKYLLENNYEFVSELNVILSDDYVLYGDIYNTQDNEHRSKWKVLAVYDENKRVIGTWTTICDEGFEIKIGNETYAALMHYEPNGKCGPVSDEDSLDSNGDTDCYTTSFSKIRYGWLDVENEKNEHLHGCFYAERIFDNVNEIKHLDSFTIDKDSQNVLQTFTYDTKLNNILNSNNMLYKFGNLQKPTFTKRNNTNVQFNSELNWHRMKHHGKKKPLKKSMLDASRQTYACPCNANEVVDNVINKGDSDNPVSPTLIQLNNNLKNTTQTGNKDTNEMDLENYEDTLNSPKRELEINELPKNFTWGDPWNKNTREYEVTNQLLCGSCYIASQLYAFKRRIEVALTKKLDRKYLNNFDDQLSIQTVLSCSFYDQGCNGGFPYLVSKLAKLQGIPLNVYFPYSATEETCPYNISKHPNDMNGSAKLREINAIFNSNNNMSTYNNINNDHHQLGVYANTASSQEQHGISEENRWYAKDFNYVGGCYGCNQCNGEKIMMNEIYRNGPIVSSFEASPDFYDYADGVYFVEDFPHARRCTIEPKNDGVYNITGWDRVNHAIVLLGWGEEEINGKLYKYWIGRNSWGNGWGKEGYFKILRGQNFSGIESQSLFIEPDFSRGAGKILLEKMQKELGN

Compound | % Inhibition @ 10 uM
O=C1c2ccc(S(=O)(=O)c3ccc4c(c3)C(=O)N(CCO)C4=O)cc2C(=O)N1CCO | -4.43%
CCN(CC)CC(=O)Nc1sc2c(c1C#N)CCCC2 | -0.906%
COc1cccc2cc(-c3nc(-c4ccc5c(c4)OCO5)no3)c(=O)oc12 | -1.39%
O=C(CNC(=O)c1ccc(F)cc1)c1ccccc1 | -4.39%
CCC(=O)N1CCN(c2nc3c(c(=O)[nH]c(=O)n3C)n2CC)CC1 | -5.48%
O=C(c1ccc(CSc2nc3ccncc3n2Cc2ccccc2)cc1)N1CCCCC1 | 2.99%
COc1ccc(CNS(=O)(=O)c2cc(-c3cc(C)no3)ccc2C)cc1 | -2.62%
CCC(=O)c1cc2ccccc2oc1=O | 7.89%
N#CC1=C(N)Oc2cc3c(cc2C1c1ccc(OCc2ccccc2F)cc1)OCO3 (stereo not drawn) | 1.37%
COc1ccc(Cn2c(CCC(=O)O)nc3ncccc3c2=O)cc1 | -0.72%
COc1ccccc1CN1CCN(Cc2ccco2)CC1 | -7.09%
COc1ccccc1NC(=O)c1ccccc1NC(=O)CCC(=O)O | -2.09%
c1cn(CCCNC2CCCCCC2)cn1 | -1.5%
COc1cccc(S(=O)(=O)Nc2ccc(C(=O)Nc3ccc4c(c3)OCCO4)cc2)c1 | 5.54%
Cc1cc2ncn(C(=O)c3ccc(F)cc3)c2cc1C | -5.28%
CCOc1ccc2ncc(C(=O)c3ccccc3)c(O)c2c1 | 1.5%
CCN(Cc1nc(-c2cccc(C)c2)no1)S(=O)(=O)c1ccc(F)cc1 | -0.946%
COc1ccccc1CNCc1c(C(=O)O)n(Cc2ccccc2C)c2cc(C)ccc12 | 10.5%
O=C1OC(c2ccc(Br)cc2)=N/C1=C\N1CC2CC(C1)c1cccc(=O)n1C2 (stereo not drawn) | 19.3%
CCOCCCNC(=O)C1=C(C)C(=O)OC12CCN(C(C)=O)CC2 | 2.62%
OCC1CCCCN1Cc1c(Cl)cccc1Cl (stereo not drawn) | 2.1%
Cc1ccc(C(=O)/C=C(O)/C(O)=C/C(=O)c2ccc(C)cc2C)c(C)c1 | -2.39%
CN(C(=O)CN)c1ccc(Br)cc1C(=O)c1ccccc1Cl | -2.32%
COc1cc(OC)cc(C(=O)NCC23C=CC(O2)C2C(=O)N(c4ccc(Cl)cc4)C(=O)C23)c1 (stereo not drawn) | 1.64%
O=C(c1ccccc1)N1CC(COc2ccccc2)OC(c2cccs2)O1 (stereo not drawn) | -1.06%
Cc1ccc(/C=C(\NC(=O)c2ccccc2)C(=O)NCCCN2CCOCC2)o1 | 3.79%
COc1cc(CNCc2c(C(=O)O)c(C)n(Cc3c(F)cccc3Cl)c2C)cc(OC)c1OC | -11.3%
